{"source": "the RNAGym collection of RNA variant scans (doi:10.7554/elife.90254)", "parents": {"B1": {"name": "LINE1-mini (parent)", "chain": "GGCAGAGCUCAACACAGCGUGGCAAAGUGGCUGUGGCUAGACUGCC"}}, "note": "The source gives no read counts; variants with many changes may rest on few reads."}
{"variants_of": "B1", "assay": "self-cleavage, relative activity (ratio to wild type); higher = more cleavage; in vitro, sequencing; the parent is a self-cleaving ribozyme"}
{"variant": "C13U C23A G36U", "self-cleavage": 0.09}
{"variant": "C13U C23A G40C", "self-cleavage": 0.02}
{"variant": "C13U C23A U38A", "self-cleavage": 0.15}
{"variant": "C13U C23A U43A", "self-cleavage": 0.11}
{"variant": "C13U C23U G27U C42G", "self-cleavage": 0.03}
{"variant": "C13U C23U U32C U38A", "self-cleavage": 0.03}
{"variant": "C13U C31U G40U", "self-cleavage": 0.06}
{"variant": "C13U C37G A41G C46A", "self-cleavage": 0.01}
{"variant": "C13U C42A C45U", "self-cleavage": 0.14}
{"variant": "C13U G17A A24U A26G U38A", "self-cleavage": 0.05}
{"variant": "C13U G17A G44C", "self-cleavage": 0.05}
{"variant": "C13U G17U G22A A26U", "self-cleavage": 0.06}
{"variant": "C13U G17U U20G A24G G27A", "self-cleavage": 0.1}
{"variant": "C13U G17U U28C", "self-cleavage": 0.04}
{"variant": "C13U G19A U20G G27C", "self-cleavage": 0.02}
{"variant": "C13U G19U C31A G33U", "self-cleavage": 0.19}
{"variant": "C13U G19U C31G C46G", "self-cleavage": 0.15}
{"variant": "C13U G19U G21U A41G", "self-cleavage": 0.04}
{"variant": "C13U G19U G27U G40A C45G", "self-cleavage": 0.03}
{"variant": "C13U G19U G30A C31A C42A C45G", "self-cleavage": 0.02}
{"variant": "C13U G19U G36C", "self-cleavage": 0.04}
{"variant": "C13U G19U U20A G29A C42U", "self-cleavage": 0.03}
{"variant": "C13U G21A G22C A26C G35C", "self-cleavage": 0.02}
{"variant": "C13U G21A G29C", "self-cleavage": 0.19}
{"variant": "C13U G21A U38C", "self-cleavage": 0.18}
{"variant": "C13U G21C C23G", "self-cleavage": 0.08}
{"variant": "C13U G21C G29U", "self-cleavage": 0.47}
{"variant": "C13U G21C U34C", "self-cleavage": 0.03}
{"variant": "C13U G21U G22A G35A G36A G40A", "self-cleavage": 0.17}
{"variant": "C13U G22A C37U", "self-cleavage": 0.87}
{"variant": "C13U G22A G27C C37A", "self-cleavage": 0.08}
{"variant": "C13U G29A U32G", "self-cleavage": 0}
{"variant": "C13U G29U C42G G44C", "self-cleavage": 0.04}
{"variant": "C13U G29U G30U", "self-cleavage": 0.05}
{"variant": "C13U G30A C31A G33A U34A", "self-cleavage": 0.08}
{"variant": "C13U G30A C42G", "self-cleavage": 0.03}
{"variant": "C13U G30U C37U", "self-cleavage": 0.01}
{"variant": "C13U G30U C46G", "self-cleavage": 0.04}
{"variant": "C13U G30U G36U A41G", "self-cleavage": 0.06}
{"variant": "C13U G33A U34C G36U", "self-cleavage": 0.12}
{"variant": "C13U G33C C45G", "self-cleavage": 0.01}
{"variant": "C13U G33U A39C", "self-cleavage": 0.08}
{"variant": "C13U G35A A41G", "self-cleavage": 0.36}
{"variant": "C13U G35A U38C", "self-cleavage": 0.15}
{"variant": "C13U G35C A39C C42A", "self-cleavage": 0.03}
{"variant": "C13U G40A C46A", "self-cleavage": 0.15}
{"variant": "C13U U20A C46U", "self-cleavage": 0.17}
{"variant": "C13U U20C A24C G29C G33C C42A", "self-cleavage": 0.01}
{"variant": "C13U U20G G33U", "self-cleavage": 0.08}
{"variant": "C13U U28A C31A C46A", "self-cleavage": 0.25}
{"variant": "C13U U28A C37U U38C", "self-cleavage": 0.03}
{"variant": "C13U U28C A39G A41U G44A C46G", "self-cleavage": 0.09}
{"variant": "C13U U28C C46A", "self-cleavage": 0.06}
{"variant": "C13U U28G G40C C46U", "self-cleavage": 0.07}
{"variant": "C13U U32C C46U", "self-cleavage": 0.14}
{"variant": "C13U U34A C45U", "self-cleavage": 0.13}
{"variant": "C13U U34C G40U C45G", "self-cleavage": 0.18}
{"variant": "C13U U38C A39G C46U", "self-cleavage": 0.08}
{"variant": "C13U U38C C46U", "self-cleavage": 0.15}
{"variant": "A14C A16C G22C A24G A26C G29A", "self-cleavage": 0.19}
{"variant": "A14C A16C G29C G30U G35U C45G", "self-cleavage": 0.08}
{"variant": "A14C A16C G33U A41U", "self-cleavage": 0.02}
{"variant": "A14C A16G C42A G44A", "self-cleavage": 0.03}
{"variant": "A14C A16G G22C G33U A41U", "self-cleavage": 0.01}
{"variant": "A14C A16G U20A C37A", "self-cleavage": 0.1}
{"variant": "A14C A16U A25U A39C", "self-cleavage": 0.02}
{"variant": "A14C A16U C42U C46U", "self-cleavage": 0.1}
{"variant": "A14C A16U G36U", "self-cleavage": 0.04}
{"variant": "A14C A16U U28G", "self-cleavage": 0.01}
{"variant": "A14C A24C U28G", "self-cleavage": 0}
{"variant": "A14C A24G C46A", "self-cleavage": 0.01}
{"variant": "A14C A24G U38G", "self-cleavage": 0.01}
{"variant": "A14C A24U A41G", "self-cleavage": 0.07}
{"variant": "A14C A25G G36U C46G", "self-cleavage": 0.03}
{"variant": "A14C A26U G30C C31A G36C", "self-cleavage": 0.02}
{"variant": "A14C A39G C46U", "self-cleavage": 0.01}
{"variant": "A14C C15A U20C U32A", "self-cleavage": 0.03}
{"variant": "A14C C15G G35A A41U U43A", "self-cleavage": 0.01}
{"variant": "A14C C15U A39C", "self-cleavage": 0.03}
{"variant": "A14C C15U C42G C46G", "self-cleavage": 0}
{"variant": "A14C C15U C46U", "self-cleavage": 0.46}
{"variant": "A14C C15U G17C A25G", "self-cleavage": 0}
{"variant": "A14C C15U G44C", "self-cleavage": 0.04}
{"variant": "A14C C18A U20C C45A C46U", "self-cleavage": 0.04}
